According to PubChem BioAssay AID686979 (National Center for Advancing Translational Sciences (NCATS), 2013):
The whole screen tested about 420,000 compounds, of which about 50,000 (12%) were called active. This list was built around the results that the source calls inconclusive (neither active nor inactive); the mix of calls is not that of the screen. Calls follow the shape of the dose curve; as a rule, active = well fitted inhibition curve with a large enough effect; inconclusive = small, poorly fitted or top-dose-only effect; inactive = flat fitted curve, though single readings scatter. No potency is given beside an inconclusive call; the fits are too rough.

Test: qHTS for Inhibitors of human tyrosyl-DNA phosphodiesterase 1 (TDP1): qHTS in cells in presence of CPT; also: nearly all actives have a fitted effect of over 55% in size
Settings: chicken DT40 Tdp1-/-;hTDP1 cells + 20 nM CPT, ATP luminescence, 48 h; activity change, negative = growth inhibition: at 46.2 µM (top of the series) unless noted
Method in brief: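 Chicken DT40 Tdp1-/- cells complemented with human TDP1, 400 cells/well, exposed to compounds plus 20 nM camptothecin for at least 48 h at 37 C; viability read as ATP content by CellTiter-Glo luminescence.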
% is scaled to controls: 0 for no effect and ±100 for the full control effect; potency is read from the fitted curve at half-maximal effect; tags tell the direction and shape of the fitted curve.

**Q.** For `O=S(=O)(NCc1ccccn1)c1ccc(Cl)s1`, which Potency is on record?
**A.** Its Potency is “inactive”.

**Q.** With `COC(=O)c1ccc(NC(=O)CCS(=O)(=O)c2ccc(Br)cc2)cc1` as the compound, how does the Potency read?
**A.** Its Potency is inconclusive [inhibitor, partial curve].

**Q.** Which Potency does the source give for `COc1ccc(N(C)S(=O)(=O)c2cccc(C(=O)N(C)Cc3ccc(C)o3)c2)cc1` here?
**A.** Its Potency is inconclusive [inhibitor, single point].

**Q.** Which Potency does the source give for `COc1ccccc1NS(=O)(=O)c1cc(NC(=O)CNC(=O)c2cc(C)cc(C)c2)ccc1C` here?
**A.** Its Potency is inconclusive [inhibitor, single point].

**Q.** Which Potency does the source give for `Nc1c(C(=O)Nc2ccc3c(c2)OCCO3)nnn1Cc1ccccc1Cl` here?
**A.** Its Potency is inconclusive [inhibitor, single point].

**Q.** With `O=C(COc1ncnc2ccccc12)N1CCN(S(=O)(=O)c2ccc(Cl)cc2)CC1` as the compound, how does the Potency read?
**A.** The Potency was inconclusive [inhibitor, single point].

**Q.** For `COc1ccc(-c2cc(C(=O)Nc3nc4ccccc4s3)c3ccccc3n2)cc1OC`, which Potency is on record?
**A.** Its Potency is active: 14.6 µM.

**Q.** Which Potency does the source give for `Cc1ccc(C)c(-c2[nH]ncc2CN2CCCC(CO)(Cc3ccccc3C)C2)c1` (stereo not drawn) here?
**A.** The Potency was active: 7.31 µM.

**Q.** With `CN(Cc1ccc2c(c1)OCCO2)C(=O)CSc1ncnc2sccc12` as the compound, how does the Potency read?
**A.** The Potency was inconclusive [inhibitor, single point].

**Q.** For `COC(=O)C(NC(=O)CC(C)C)(Nc1nc2c(s1)CCCC2)C(F)(F)F` (stereo not drawn), which Potency is on record?
**A.** The Potency was active: 16.4 µM.

**Q.** Which Potency does the source give for `CCOC(=O)C1=C(C)N(CCCC(=O)NCc2ccc3c(c2)OCO3)C(=O)NC1c1ccc(Br)cc1` (stereo not drawn) here?
**A.** Its Potency is inconclusive [inhibitor, single point].

**Q.** For `CC(C)(C)OC(=O)N1Cc2ccccc2C[C@H]1C(=O)NCC(=O)NCC1CCCO1` (stereo partly drawn), which Potency is on record?
**A.** The Potency was “inactive”.

**Q.** With `CC(C)(C)C(=O)O/N=C(\N)c1ccc(-c2csnn2)cc1` as the compound, how does the Potency read?
**A.** Its Potency is “inactive”.

**Q.** Which Potency does the source give for `COc1ccccc1-c1cncc(NC(C)=O)n1` here?
**A.** Its Potency is “inactive”.

**Q.** For `COc1ccc(C(=O)c2ccc(-c3ccc(OC)cc3)nc2)cc1`, which activity change, negative = growth inhibition is on record?
**A.** The activity change, negative = growth inhibition was inconclusive: -33.7% [inhibitor].

**Q.** With `Cc1ccc(CN2CCC(n3nccc3NC(=O)CCOc3ccccc3)CC2)cc1C` as the compound, how does the Potency read?
**A.** The Potency was inconclusive [inhibitor, single point].

**Q.** Which Potency does the source give for `Cc1ccc(NC(=O)c2ccco2)c(NC(=O)c2ccc(Cl)cc2)c1` here?
**A.** Its Potency is “inactive”.

**Q.** With `CCc1ccccc1NC(=O)CNC(=O)c1cn(Cc2ccccc2)nc1-c1cccnc1` as the compound, how does the Potency read?
**A.** Its Potency is “inactive”.

**Q.** With `Cc1sc(Nc2ccc([N+](=O)[O-])cc2)nc1-c1c(C)n(C)n(-c2ccccc2)c1=O` as the compound, how does the Potency read?
**A.** Its Potency is inconclusive [inhibitor, single point].

**Q.** For `Cc1ccccc1CSc1nc2c(c(=O)[nH]1)CCC2`, which Potency is on record?
**A.** Its Potency is inconclusive [inhibitor, single point].

**Q.** With `CC1(C(=O)Nc2nnc(SCc3ccccc3)s2)Cc2ccccc2C(=O)O1` (stereo not drawn) as the compound, how does the Potency read?
**A.** The Potency was inconclusive [inhibitor, partial curve].

**Q.** Which Potency does the source give for `COc1ccc(N2C(=O)C(Cl)=C(Nc3c(C)n(C)n(-c4ccccc4)c3=O)C2=O)cc1` here?
**A.** Its Potency is active: 2.59 µM.

**Q.** With `Cc1ccc(C(C)C)c(OCC(=O)NC(=S)Nc2ccccc2N2CCOCC2)c1` as the compound, how does the Potency read?
**A.** Its Potency is active: 23.1 µM.

**Q.** With `C=CCn1c(Cc2cccs2)nnc1SCC(=O)c1cccc(Br)c1` as the compound, how does the Potency read?
**A.** Its Potency is inconclusive [inhibitor, single point].

**Q.** With `O=C(CSc1nc2ccccc2n1CCc1ccccc1)N1CCOCC1` as the compound, how does the Potency read?
**A.** Its Potency is inconclusive [inhibitor, partial curve].

**Q.** For `O=C(NNC(=O)C(c1ccccc1)c1ccccc1)c1ccccn1`, which Potency is on record?
**A.** Its Potency is active: 2.91 µM.

**Q.** For `CCOc1ccc(CNCc2c(C(=O)O)n(Cc3ccccc3F)c3cc(OC)ccc23)cc1`, which Potency is on record?
**A.** The Potency was active: 18.4 µM.

**Q.** Which Potency does the source give for `CCc1cnc2c(c1SCC(=O)N1CCCCC1)c(=O)n(C)c(=O)n2C` here?
**A.** The Potency was inconclusive [inhibitor, single point].

**Q.** With `COC(=O)c1ccc2c(c1)C(=O)/C(=C/c1ccc(C)cc1)O2` as the compound, how does the Potency read?
**A.** The Potency was active: 18.4 µM.

**Q.** With `COc1ccc(-n2nc(C)cc2Nc2ccccc2C(=O)O)cc1` as the compound, how does the Potency read?
**A.** The Potency was inconclusive [inhibitor, single point].

**Q.** For `COc1ccc(N2CC(NC(=O)c3cccc4ccccc34)CC2=O)cc1OC` (stereo not drawn), which Potency is on record?
**A.** Its Potency is inconclusive [inhibitor, single point].

**Q.** Which Potency does the source give for `Cc1nc(N)sc1-c1csc(Nc2cc(N(C)C)ccc2Cl)n1` here?
**A.** The Potency was active: 7.31 µM.

**Q.** For `COCCOC(=O)C1=C(C)NC(=O)NC1c1cccc2ccccc12` (stereo not drawn), which Potency is on record?
**A.** Its Potency is “inactive”.

**Q.** With `COC(=O)C(Nc1nccs1)(OC)C(F)(F)F` (stereo not drawn) as the compound, how does the Potency read?
**A.** Its Potency is inconclusive [inhibitor, single point].

**Q.** For `O=C(CSc1nc2ccccc2nc1Cc1ccccc1)NCc1ccccc1Cl`, which Potency is on record?
**A.** The Potency was inconclusive [inhibitor, single point].

**Q.** Which Potency does the source give for `Cc1cc(C)c(OCC(=O)NCCCn2nc(C)cc2C)c(C)c1` here?
**A.** The Potency was inconclusive [inhibitor, partial curve].

**Q.** For `COc1ccc(NC(=O)CSc2nc(-c3cccs3)cc(C(F)(F)F)n2)cc1OC`, which Potency is on record?
**A.** The Potency was active: 4.61 µM.

**Q.** With `CCN(CC)c1nc(NC2CCN(C)CC2)c2cc(OC)c(OC)cc2n1` as the compound, how does the Potency read?
**A.** Its Potency is active: 5.62 µM.

**Q.** Which Potency does the source give for `CCC(=O)N1CCc2cc(Br)cc(S(=O)(=O)N3CCC(C(=O)Nc4ccc(OC)cc4)CC3)c21` here?
**A.** Its Potency is inconclusive [inhibitor, single point].

**Q.** With `Cc1noc(C)c1-c1ccc2ncnc(N3CCOCC3)c2c1` as the compound, how does the Potency read?
**A.** The Potency was inconclusive [inhibitor, single point].

**Q.** With `COCc1cc(=O)n2c([nH]c3ccccc32)c1C#N` as the compound, how does the Potency read?
**A.** The Potency was “inactive”.

**Q.** Which Potency does the source give for `O=[N+]([O-])c1ccc(Cl)c2c1C1C=CCC1C(c1ccccn1)N2` (stereo not drawn) here?
**A.** The Potency was active: 18.4 µM.

**Q.** With `CCCCN(CC)CCCNC(=O)c1sc2nc(C)cc(C)c2c1-n1cccc1` as the compound, how does the Potency read?
**A.** Its Potency is inconclusive [inhibitor, single point].

**Q.** Which Potency does the source give for `Cc1ccc2[nH]c(C(=O)O)c(NC(=O)c3ccccc3[N+](=O)[O-])c2c1` here?
**A.** Its Potency is “inactive”.

**Q.** Which Potency does the source give for `Cc1cc(C)cc(NC(=O)Cn2nnc(C(=O)NCc3ccc4c(c3)OCO4)c2N)c1` here?
**A.** Its Potency is “inactive”.

**Q.** Which Potency does the source give for `O=c1[nH]c(S)nc2sc3c(c12)CCCC3` here?
**A.** The Potency was “inactive”.

**Q.** Which Potency does the source give for `Cc1cccc(OC(C)C(=O)Nc2ncn[nH]2)c1` (stereo not drawn) here?
**A.** Its Potency is “inactive”.

**Q.** For `C#Cc1ccc([C@@H]2C=C(C(=O)Nc3ccccc3)O[C@H](OCC)[C@H]2CCCO)cc1`, which Potency is on record?
**A.** The Potency was active: 16.4 µM.
